From PubChem BioAssay (NCI)
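Protocol summary: plate cells (96-well), add compound at 5 concentrations, incubate 48 h, interpolate endpoints linearly. GI50 = concentration required for 50% inhibition of growth. Definition used: TGI = concentration required for complete inhibition of growth.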

System: NCI-H322M lung
Test: NCI tumour cell line growth inhibition, 48 h

Structure (SMILES) | GI50 [µM] | TGI [µM]
CC(=O)Oc1ccccc1C(=O)[Se]CC(=O)Nc1cccc(C(F)(F)F)c1 | 2.56 | 7.75
COc1ccc(-c2ccnc(SCc3cc4cc(OC)ccc4[nH]c3=O)n2)cc1 | 43.7 | > 100
